These compounds were tested on pERK in DLD-1 cells (KRAS G13D mutant) (assay: cells). Details: Homo sapiens, DLD-1, 1.5 h, read-out: IC50, inhibitory activity on pERK in DLD-1 cells.
Experimental: The degree of ERK protein phosphorylation in KRAS G13D mutant DLD-1 cells was detected by homogeneous time-resolved fluorescence (HTRF), and the IC50 and IC90 values of the compounds were used as indicators to evaluate the inhibitory activity of the compounds on the degree of ERK phosphorylation in the RAS signaling pathway.
1. Experimental Steps and Methods:
• 1) DLD-1 (50,000 cells/well) cells were planted into a 96-well plate with 90 μL of RPMI-1640 medium (10% fetal bovine serum) per well, and cultured overnight at 37° C. in a 5% CO2 incubator. • 2) 10 μL of the 10× compound working solution was taken and added to the cell culture plate as shown in Table 2. 10 μL of DMSO-cell culture medium mixture was added to vehicle control and positive control. The final concentration of DMSO was 0.25%. The 96-well cell plate was returned to the incubator and cultured for 1.5 hours.
• 3) The cell supernatant was removed, 50 μL of 1× lysate was immediately added, and incubated at room temperature for 30 minutes with shaking. • 4) 16 μL of cell lysate was transferred from the 96-well plate to the HTRF 384-well assay plate by pipetting and mixing with a pipette. • 5) 4 μL of the premixed antibody solution was added, the plate was sealed, and incubated at 4° C. The fluorescence emission intensity at 665 nm and 620 nm was detected with an HTRF plate reader. 2. Data Analysis: • 1) The fluorescence wavelength of the Envision instrument was set at 665 nm and 620 nm for fluorescence quantification; • 2) acceptor and donor emission signals per well were calculated: Ratio=Signal 665 nM/Signal 620 nM; • 3) after removing the background value, the raw data was compared with the DMSO treatment group, and the relative pERK level was calculated; • 4) IC50 was calculated based on Log[inhibitor] vs Response-variance slope using GraphPad 8.0 software.

Row | Compound | IC50
1 | C=C[C@@H](Nc1nc(C)nc2cc(=O)n(C3(C(F)F)CCN(C(C)=O)C3)cc12)c1cccc(C(F)F)c1F (some centres unmarked) [Compound 15] | 25 nM
2 | C=C[C@@H](Nc1nc(C)nc2cc(=O)n(C3(C(F)F)CC3)cc12)c1cccc(C(F)F)c1F [Compound 8] | 37 nM
3 | C=C[C@@H](Nc1nc(C)nc2cc(=O)n(C3(C)CCN(C(C)=O)CC3)cc12)c1cccc(C(F)F)c1F [Compound 9] | 36 nM
4 | C=C[C@@H](Nc1nc(C)nc2cc(=O)n(C3(C)CCN(C(C)=O)C3)cc12)c1cccc(C(F)F)c1F (some centres unmarked) [Compound 13] | 26 nM
5 | C=C[C@@H](Nc1nc(C)nc2cc(=O)n(C3(C)CCN(C(=O)OC)CC3)cc12)c1cccc(C(F)F)c1F [Compound 10] | 87 nM

Source: patent publication US12552787B2, “Quinazoline compound” (MEDSHINE DISCOVERY INC., priority 2020, dated 2026)
